Experimental data published in the supplement of paper PMC3334620.
Whole data set: some 33,000 sequences, median “E-score (-0.5 to 0.5)” near -0.056, cut for the highest 2% near 0.38. The list shows a part of the results.

Each sequence was assayed against Stb4 (UniProt P50104) (assay: PBM E-score (8-mer binding enrichment) (E-score (-0.5 to 0.5)); higher = stronger / more preferred TF binding; most listed sequences are background and not binding sites). Conditions: protein concentration: 200 nM; construct: GST-DNA-binding domain.
How it was run: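 Bound GST-tagged yeast transcription factors, applied at about 100-200 nM to double-stranded universal all-10-mer Agilent arrays, were detected with fluorescent anti-GST. Scans were normalised with masliner. A modified Wilcoxon-Mann-Whitney statistic, the E-score, was assigned to each ungapped eight-base word pooled with its reverse complement by the Universal PBM Analysis Suite.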

Sequence	PBM E-score
CATTACAA	-0.105
AAACATAT	0.0375
CCACAGTC	-0.32
CAGCGTAA	-0.0838
CGATCGTC	0.0608
CTAGAACA	0.14
CCGTAAGA	0.0328
ACCTTAGC	-0.258
GGGCCCCC	-0.0871
AACCCCGA	0.331
TGAGCGAA	-0.122
AGGGTCAT	-0.205
AGCGTACG	-0.00449
GTGTAGTA	0.0903
CTGGCTGA	-0.0974
AACGTCGT	0.0289
GACCTAAA	0.104
AGGTAGGA	-0.152
ACACGATA	0.107
GAAAGCAA	0.185
TGGTCCAA	0.0289
CTAGGGAG	-0.242
AATCGGTA	0.205
AGTTGGAA	-0.00656
GAATGTGA	-0.0287

Sequence	PBM E-score
CATTCGCA	-0.158
TCACCTAA	-0.0212
GAGAGCTC	-0.0422
CTCCACTA	-0.193
AATCGCGT	0.0285
AGATCCAG	-0.22
ATCAGTTC	-0.0167
AGTCGCAA	-0.0974
ATTAATAG	-0.105
AAGGCCCT	-0.154
CCCACCAA	-0.12
CTCAAAGC	-0.00181
CGGCGAGA	0.142
ATGCCACC	-0.0626
CTACATAC	-0.0746
ATTATAGC	-0.0903
AATGCCAG	-0.117
CCTGCATC	-0.189
ATGCGTAG	-0.06
ACGATACT	-0.101
CGCCAGCA	-0.163
TATATGCA	-0.103
GTAGTAGA	-0.181
CAACAACA	-0.224
GCTGGCGA	-0.0904

Sequence	PBM E-score
CAGTGGAC	-0.184
ATGCCTCA	0.014
CGGAGCAG	0.306
AGTACGAA	0.016
TAGTCGAA	-0.0758
CTGTAGGC	-0.194
TCTCATCA	-0.275
ATTAATCG	0.236
GGCTCTGA	-0.0938
ATCACTTA	0.0643
GTGGGGCA	-0.0164
GGTGTAAA	-0.0367
CTACACTA	-0.294
CTTACTTA	-0.166
CACGTTAC	-0.205
ACAGGTCG	-0.065
AACCAACC	-0.0173
ATAGTTAC	-0.111
AATTGTGG	-0.229
GTCGTTCA	-0.0958
GATTTAAC	0.171
CTACGGCA	0.108
CCGGCCAA	0.271
CTGTGTTA	0.0856
GGTTTCTA	0.139

Sequence	PBM E-score
ATTATCCA	-0.0958
AATCTTTC	0.0363
GCACCCTA	-0.254
AATCCGTA	0.12
AATCACTG	0.00277
GTATGAAC	0.00829
ATACACTG	-0.154
GCTGGGAC	-0.117
ACACTCGG	0.354
GACATACC	0.0488
ATATACCC	0.202
CGCGAGCG	-0.016
ATGAGAAT	0.0223
AAGACACT	0.0624
AGGTCTGG	-0.236
CGCACGAG	-0.0922
CTATACAG	-0.204
AGTTCTTA	-0.0189
CGGTGCGC	0.103
CACTGCTC	-0.0624
CACGTCTA	-0.263
GGTTATAC	0.0761
AGATCGCA	-0.074
AACAGTCC	-0.33
GGCGGGCA	0.135

Sequence	PBM E-score
ACGGACCT	-0.0202
AGGAAGCG	0.011
CGAAGAGA	0.157
AGGCATCA	-0.201
CGCCGACC	0.221
CCGCACCC	0.212
ACGCCCAG	-0.319
TCAGATAA	-0.0704
AGAAAGCT	0.0286
GGGACTGA	-0.0999
CTGGATGA	-0.172
CCGCTAGA	-0.193
AGAAGGTG	-0.0949
GGGGTAAA	-0.0301
AGTAGGAG	-0.236
AATAACGT	-0.0631
ATAACAGG	-0.133
CGTTAACA	-0.0627
CGGGAGTC	0.261
AACACTTA	-0.188
GCGAAAAC	-0.154
CATGGATA	-0.0308
CGTGTCGC	0.0649
ACAGTCAG	-0.0929
ACAATTAA	0.124

Sequence	PBM E-score
CACCAACC	0.074
AGAAGCGA	-0.168
CAATCAGA	-0.15
CACACTGG	-0.18
GAGCTAGC	-0.0654
AAGATGAG	-0.31
GATAGTGA	-0.0698
CCAAGGGG	-0.12
CTCGCTAC	-0.127
GAGCCATA	-0.159
AAACCATA	-0.0199
AAGAGCAC	-0.153
CCACGCGA	-0.189
CAGAAGTA	-0.204
CTCGGCTC	0.422
GCAGCCAA	-0.103
CATGGGGC	-0.152
ATGAGTGA	-0.175
AGGTAAGC	-0.112
TCAACCCA	-0.105
TGTAGTAA	0.0142
AATTGAAA	-0.245
CATCATTC	-0.0643
ATGTGAAG	-0.0918
GATAATCA	-0.0752

Sequence	PBM E-score
CACTGAGG	-0.114
ATTCTGAC	0.00922
CCAGAATC	-0.0922
GCTCTAAC	-0.0925
GCCTCACA	-0.109
ATCGACCG	0.138
CGAGTTGC	0.0987
CGAGAAGA	0.0362
CGAAATCA	0.185
AAGGCGAT	-0.271
CTGGGCGA	-0.138
ATCGCGAA	0.104
ACAAACGA	0.00615
CCAGCCGG	0.243
TCAGTGGA	-0.133
TCAAAAAA	0.0224
AGTGATAG	-0.33
TGCACGAA	-0.192
ACTGTTAT	-0.116
AAGTAACT	-0.0364
ATCTGCAT	-0.071
ATTGAAGC	0.0426
TATTTGAA	-0.036
CCAACACA	-0.127
AATCGCAT	-0.112

Sequence	PBM E-score
AAGGTCTA	-0.0592
ACTCATAC	0.082
CTTAGACA	-0.19
CCAGCGGC	-0.046
CTAGTAGC	0.12
GCCCAGAA	-0.0393
CCTTAGCG	-0.147
GCCTTGAC	-0.0679
AAGTAACA	-0.0722
AAAAAGGT	-0.106
ACTACGAG	-0.257
CCGCTGAA	-0.0126
CCTGCTCA	-0.278
AATGCGTG	-0.121
AATCCGGA	0.363
CGCCTCAA	-0.0881
CACTTTTA	-0.039
CGTGTGTA	0.0595
GTCGAGTA	-0.132
AACGCGAA	-0.0643
GTTAGACA	0.0418
AGTGAGTA	0.0499
ACGCCGCC	0.00985
GCGCGCAC	0.0782
CGGTGACG	0.0723

Sequence	PBM E-score
CTCATCTC	0.0314
ATAACTAT	-0.133
TACTAATA	-0.00352
GGCATGAC	-0.138
TGCGCGAA	-0.0295
TCCATCGA	-0.0527
GGTAGAGA	0.0223
AAATCGCG	-0.126
TCTACTAA	-0.047
CAATACCA	-0.204
GGCTCTTA	-0.0128
AACCTCAA	-0.173
CATATGCG	-0.0368
ATTTACCG	0.382
GTCCGGTA	0.191
CGTATTTC	0.0292
GATTCGAC	-0.233
ATGGATCC	0.213
TCGGAAGA	0.455
